# Measured values reported in PubChem BioAssay (Tox21).
# Inconclusive means that the source gave no clear call. Such entries were picked first, then a sample of the others. For some assays here: Potencies of inconclusive entries are doubtful fits and often do not repeat. Calls of active or inactive are those of the source. Unless noted, calls follow the shape of the full dose curve.
# Legend:
# [1] = biological target: Peroxisome proliferator-activated receptor delta (Homo sapiens) (UniProt Q03181); experiment: qHTS assay to identify small molecule agonists of the peroxisome proliferator-activated receptor delta (PPARd) signaling pathway (AID 743212); conditions: HEK293H PPARd-UAS-bla, beta-lactamase FRET ratio, 17 h; activation: at 62.6 µM (top of the series) unless noted; also: potency is read from the fitted curve at half-maximal effect
# Chain of UniProt Q03181 (Q03181 whole entry, looked up): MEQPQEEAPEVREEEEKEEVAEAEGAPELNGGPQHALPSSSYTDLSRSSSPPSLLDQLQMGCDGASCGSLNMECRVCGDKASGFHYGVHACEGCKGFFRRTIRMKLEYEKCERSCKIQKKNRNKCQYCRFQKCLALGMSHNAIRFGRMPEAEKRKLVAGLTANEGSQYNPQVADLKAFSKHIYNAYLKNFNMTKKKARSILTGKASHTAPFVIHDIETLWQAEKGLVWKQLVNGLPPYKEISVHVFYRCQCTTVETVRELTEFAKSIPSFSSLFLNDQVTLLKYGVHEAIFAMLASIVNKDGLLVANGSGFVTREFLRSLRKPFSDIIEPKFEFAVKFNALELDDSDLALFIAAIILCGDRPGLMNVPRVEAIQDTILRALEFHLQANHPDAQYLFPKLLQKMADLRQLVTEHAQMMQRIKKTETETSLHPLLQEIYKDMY
# Procedure, shortened: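 Cells expressing a UAS-driven beta-lactamase reporter (PPARd-bla HEK293H) were given test compounds after a 5 h settle and kept at 37 C. Reporter activity was then measured as FRET fluorescence using LiveBLAzer B/G substrate.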
# [2] = qHTS assay to identify small molecule antagonists of the peroxisome proliferator-activated receptor delta (PPARd) signaling pathway - cell viability counter screen (AID 743213; active = well fitted curve in the direction sought with a large enough effect in the repeat runs; inconclusive = weak or mixed curves; inactive = no such curve, though single readings can be large; an effect the other way counts as inactive or inconclusive; also: nearly all actives have a fitted effect of over 50% in size; also: potency is read from the fitted curve at half-maximal effect); conditions: PPARd-bla HEK293H viability, CellTiter-Glo luminescence, 17 h; viability change, negative = cytotoxic: at 62 µM (top of the series) unless noted
# Procedure, shortened: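 CellTiter-Glo was added to PPARd-bla HEK293H wells following 17 h compound treatment in the presence of 300 nM L165041. Luminescence was recorded after 30 min at room temperature.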
# [3] = biological target: Bile acid receptor (Homo sapiens) (UniProt Q96RI1); experiment: qHTS assay to identify small molecule antagonists of the farnesoid-X-receptor (FXR) signaling pathway (AID 743217; active = well fitted inhibition curve with a large enough effect in the signal ratio in the repeat runs, not every such curve was filed as active; inconclusive = weak or mixed curves, or effect the other way; inactive = no such curve, though single readings can be large or run the other way; the % refers to the signal ratio); conditions: HEK293T FXR-UAS-bla, beta-lactamase ratio, CDCA-stimulated, 16 h; activity change, negative = inhibition: at 62.6 µM (top of the series) unless noted
# Chain of UniProt Q96RI1 (Q96RI1 whole entry, looked up): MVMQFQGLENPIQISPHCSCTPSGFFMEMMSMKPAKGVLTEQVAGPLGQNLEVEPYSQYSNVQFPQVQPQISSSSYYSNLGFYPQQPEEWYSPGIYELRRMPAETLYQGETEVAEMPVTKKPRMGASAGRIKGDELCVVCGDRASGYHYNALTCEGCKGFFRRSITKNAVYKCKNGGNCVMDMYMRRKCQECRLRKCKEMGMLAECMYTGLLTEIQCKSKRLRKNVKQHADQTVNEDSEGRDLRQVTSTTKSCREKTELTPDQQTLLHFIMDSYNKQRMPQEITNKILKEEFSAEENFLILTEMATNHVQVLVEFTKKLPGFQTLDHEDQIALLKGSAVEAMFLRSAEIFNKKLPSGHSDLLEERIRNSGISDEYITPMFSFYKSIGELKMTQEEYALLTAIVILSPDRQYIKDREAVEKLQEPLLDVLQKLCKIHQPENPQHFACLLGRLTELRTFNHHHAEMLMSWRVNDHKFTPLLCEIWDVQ
# Procedure, shortened: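 Screen of the Tox21 10K library in quantitative HTS format using FXR-UAS-bla HEK 293T reporter cells. Agonist chenodeoxycholic acid, 50 uM final, added with compounds; 16 h incubation at 37 °C; beta-lactamase FRET fluorescence measured.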
# [4] = qHTS assay to identify small molecule agonists of the farnesoid-X-receptor (FXR) signaling pathway - cell viability counter screen (AID 743218; active = well fitted curve in the direction sought with a large enough effect in the repeat runs; inconclusive = weak or mixed curves; inactive = no such curve, though single readings can be large; an effect the other way counts as inactive or inconclusive; also: nearly all actives have a fitted effect of over 45% in size; also: potency is read from the fitted curve at half-maximal effect); conditions: FXR-bla HEK293T viability, CellTiter-Glo luminescence, 16 h; viability change, negative = cytotoxic: at 62.6 µM (top of the series) unless noted
# Procedure, shortened: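 Viability of FXR-bla HEK 293T cells is measured by ATP-based CellTiter-Glo luminescence following 16 h compound treatment at 37 C and a prior 2 h room-temperature beta-lactamase substrate step.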
# [5] = biological target: Bile acid receptor (Homo sapiens) (UniProt Q96RI1); experiment: qHTS assay to identify small molecule agonists of the farnesoid-X-receptor (FXR) signaling pathway (AID 743220; active = well fitted activation curve with a large enough effect in the signal ratio in the repeat runs, not every such curve was filed as active; inconclusive = weak or mixed curves, or effect the other way; the % refers to the signal ratio); conditions: HEK293T FXR-UAS-bla, beta-lactamase FRET ratio, 16 h; activation: at 62.6 µM (top of the series) unless noted
# Procedure, shortened: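 FXR-UAS-bla HEK 293T cells carrying a UAS-driven beta-lactamase reporter were plated for 5 h at 37C/5% CO2, then exposed to DMSO-dissolved Tox21 10K compounds for 16 h at 37C. A LiveBLAzer B/G FRET substrate was loaded for 2 h at room temperature before fluorescence reading.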
# [6] = biological target: Vitamin D3 receptor (Homo sapiens) (UniProt P11473); experiment: qHTS assay to identify small molecule agonists of the vitamin D receptor (VDR) signaling pathway (AID 743222); conditions: HEK293T VDR-UAS-bla, beta-lactamase FRET ratio, 16 h; activation: at 63.5 µM (top of the series) unless noted; also: potency is read from the fitted curve at half-maximal effect
# Chain of UniProt P11473 (P11473 whole entry, looked up): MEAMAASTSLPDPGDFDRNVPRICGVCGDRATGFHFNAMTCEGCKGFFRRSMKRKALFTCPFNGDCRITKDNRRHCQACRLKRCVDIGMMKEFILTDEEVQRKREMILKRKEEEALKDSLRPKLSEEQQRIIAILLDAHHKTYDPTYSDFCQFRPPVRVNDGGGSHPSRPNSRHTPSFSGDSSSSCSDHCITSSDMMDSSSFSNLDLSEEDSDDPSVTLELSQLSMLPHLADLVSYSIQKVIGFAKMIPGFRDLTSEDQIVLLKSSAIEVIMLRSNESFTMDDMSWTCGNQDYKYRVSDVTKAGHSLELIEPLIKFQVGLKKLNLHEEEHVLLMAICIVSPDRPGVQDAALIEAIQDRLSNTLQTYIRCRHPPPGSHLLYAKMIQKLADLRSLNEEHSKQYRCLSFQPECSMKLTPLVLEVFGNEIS
# Procedure, shortened: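 Fluorescence from cleaved LiveBLAzer B/G FRET substrate served as readout. VDR-bla cells had been treated 16 h at 37C with test compounds in DMSO, following a 4 h settling period, and substrate was loaded for 2 h at RT.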
# [7] = biological target: Vitamin D3 receptor (Homo sapiens) (UniProt P11473); experiment: qHTS assay to identify small molecule antagonists of the vitamin D receptor (VDR) signaling pathway (AID 743223; active = well fitted inhibition curve with a large enough effect in the signal ratio in the repeat runs, not every such curve was filed as active; inconclusive = weak or mixed curves, or effect the other way; inactive = no such curve, though single readings can be large or run the other way; the % refers to the signal ratio); conditions: VDR-UAS-bla HEK293T, beta-lactamase FRET ratio, 16 h; activity change, negative = inhibition: at 61 µM (top of the series) unless noted
# Procedure, shortened: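 Quantitative HTS in VDR-bla reporter cells stimulated with 1alpha,25-dihydroxyvitamin D3, 3 nM final. Compound exposure 16 h, 37C, 5% CO2. Read-out: beta-lactamase FRET substrate fluorescence, 2 h RT.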
# [8] = qHTS assay to identify small molecule antagonists of the vitamin D receptor (VDR) signaling pathway - cell viability counter screen (AID 743225; active = well fitted curve in the direction sought with a large enough effect in the repeat runs; inconclusive = weak or mixed curves; inactive = no such curve, though single readings can be large; an effect the other way counts as inactive or inconclusive; also: nearly all actives have a fitted effect of over 50% in size; also: potency is read from the fitted curve at half-maximal effect); conditions: VDR-bla HEK293T viability, CellTiter-Glo luminescence, 16 h; viability change, negative = cytotoxic: at 61 µM (top of the series) unless noted
# Procedure, shortened: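 Same-well multiplex: following 16 h treatment of HEK 293T cells carrying a UAS-driven beta-lactamase reporter with compound and agonist (3 nM final), and a 2 h FRET substrate step, CellTiter-Glo was added and luminescence read after 30 min.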
# [9] = qHTS assay to identify small molecule agonists of the endoplasmic reticulum stress response signaling pathway (AID 1159516; active = well fitted activation curve with a large enough effect in the signal ratio in the repeat runs, not every such curve was filed as active; inconclusive = weak or mixed curves, or effect the other way; the % refers to the signal ratio; also: potency is read from the fitted curve at half-maximal effect); conditions: ESRE-bla HeLa, ER stress beta-lactamase reporter, 5 h; activation: at 61 µM (top of the series) unless noted
# Procedure, shortened: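 Using a HeLa line with an ESRE-driven beta-lactamase gene, agonist activity was measured by FRET substrate fluorescence (460 and 530 nm emission) after cells were treated with compounds for 5 hr at 37 C and 5% CO2.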
# [10] = biological target: Retinoic acid receptor RXR-alpha (Homo sapiens) (UniProt P19793); experiment: qHTS assay to identify small molecule agonists of the RXR signaling pathway (AID 1159527); conditions: HEK293T RXRa-UAS-bla, beta-lactamase ratio, 16 h; activation: at 76.8 µM (top of the series) unless noted; also: nearly all actives have a fitted effect of over 35% in size; also: potency is read from the fitted curve at half-maximal effect
# Chain of UniProt P19793 (P19793 whole entry, looked up): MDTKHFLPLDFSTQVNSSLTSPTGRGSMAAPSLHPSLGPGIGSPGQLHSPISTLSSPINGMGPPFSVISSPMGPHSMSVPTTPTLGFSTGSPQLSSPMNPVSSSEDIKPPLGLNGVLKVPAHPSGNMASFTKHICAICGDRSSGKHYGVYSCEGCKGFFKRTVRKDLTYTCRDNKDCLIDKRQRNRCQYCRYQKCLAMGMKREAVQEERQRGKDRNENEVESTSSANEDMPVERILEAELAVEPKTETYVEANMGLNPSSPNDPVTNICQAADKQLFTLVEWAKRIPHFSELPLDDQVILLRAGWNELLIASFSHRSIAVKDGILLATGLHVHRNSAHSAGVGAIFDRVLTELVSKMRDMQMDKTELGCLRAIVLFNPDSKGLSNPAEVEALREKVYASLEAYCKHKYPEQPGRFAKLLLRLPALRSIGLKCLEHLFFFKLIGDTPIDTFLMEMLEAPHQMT
# Procedure, shortened: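 Compounds in DMSO were added to RXR-alpha-UAS-bla HEK 293T cells kept in 2% charcoal-stripped serum, and incubated 16 hr at 37 C with 5% CO2. Reporter signal came from a 2 hr B/G FRET substrate step.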
# [11] = qHTS assay to identify small molecule agonists of the vitamin D receptor (VDR) signaling pathway - cell viability counter screen (AID 743224; active = well fitted curve in the direction sought with a large enough effect in the repeat runs; inconclusive = weak or mixed curves; inactive = no such curve, though single readings can be large; an effect the other way counts as inactive or inconclusive; also: nearly all actives have a fitted effect of over 50% in size; also: potency is read from the fitted curve at half-maximal effect); conditions: VDR-bla HEK293T viability, CellTiter-Glo luminescence, 16 h; activity change, negative = cytotoxicity: at 62.6 µM (top of the series)
# Procedure, shortened: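 Compounds were pin-transferred onto VDR-bla cells plated 4 h earlier; following 16 h incubation at 37C, cell viability was quantified by CellTiter-Glo luminescence after 30 min at room temperature.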
# [12] = biological target: Peroxisome proliferator-activated receptor delta (Homo sapiens) (UniProt Q03181); experiment: qHTS assay to identify small molecule antagonists of the peroxisome proliferator-activated receptor delta (PPARd) signaling pathway (AID 743215; active = well fitted inhibition curve with a large enough effect in the signal ratio in the repeat runs, not every such curve was filed as active; inconclusive = weak or mixed curves, or effect the other way; inactive = no such curve, though single readings can be large or run the other way; the % refers to the signal ratio;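 also: cells stimulated with agonist L165041 at 300 nM final during compound exposure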; also: potency is read from the fitted curve at half-maximal effect); conditions: HEK293H PPARd-UAS-bla, beta-lactamase FRET ratio, antagonist, 17 h; ratio activity, negative = inhibition: at 62 µM (top of the series) unless noted
# Procedure, shortened: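 Plated HEK293H PPARd-bla cells rested 5 h at 37 C and 5% CO2. Compound, then agonist L165041 at 300 nM final, was added; 17 h at 37 C followed. Substrate loading, 2 h room temperature, fluorescence measured.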
# [13] = qHTS assay to identify small molecule antagonists of the retinoid acid receptor (RAR) signaling pathway - cell viability counter screen (AID 1159551; active = well fitted curve in the direction sought with a large enough effect in the repeat runs; inconclusive = weak or mixed curves; inactive = no such curve, though single readings can be large; an effect the other way counts as inactive or inconclusive; also: nearly all actives have a fitted effect of over 35% in size; also: potency is read from the fitted curve at half-maximal effect)
# Procedure, shortened: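 ATP-based viability, C3RL4 cells, 6 h at 37 C with 1 uM final retinol co-added after compound; luminescence read 30 min post CellTiter-Glo, RT.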
# % is scaled to controls: 0 for no effect and ±100 for the full control effect; tags tell the direction and shape of the fitted curve or compound fluorescence and quenching.
smiles,measurement,setting,value
CCCCCCCCCCC(=O)O,activation,[1],inconclusive: 10.7% [at 81.1 µM]
same,"viability change, negative = cytotoxic",[2],inconclusive: -6.06% [at 80.4 µM]
same,"activity change, negative = inhibition",[3],inconclusive: 14% [at 81.1 µM]
same,Potency,[4],inactive
same,activation,[5],inconclusive: 2.91% [at 81.1 µM]
same,activation,[6],inconclusive: 9.12% [at 81.1 µM]
same,"activity change, negative = inhibition",[7],inconclusive: 2.73% [at 78.8 µM]
same,Potency,[8],"inconclusive: 0.176 µM [cytotoxic, full curve, poor fit]"
same,Potency,[9],"inconclusive: 8.81 µM [rising, partial curve, poor fit]"
same,Potency,[10],active: 49.6 µM
Cc1ccc2nc(N)[nH]c(=O)c2c1Sc1ccncc1,Potency,[1],inactive
same,"activity change, negative = inhibition",[3],inconclusive: -20.3%
same,Potency,[4],"inconclusive: 0.0596 µM [rising, partial curve, poor fit]"
same,Potency,[9],"inconclusive: 15.1 µM [rising, single point]"
same,Potency,[10],inactive
CC(C)(N=C=O)c1cccc(C(C)(C)N=C=O)c1,Potency,[1],"inconclusive: 17.2 µM [rising, full curve, poor fit]"
same,"activity change, negative = inhibition",[7],inconclusive: 0.334%
same,Potency,[9],"inconclusive: 21.9 µM [rising, partial curve, poor fit]"
same,Potency,[10],inconclusive: 43.3 µM [partial curve] and inactive
CC(C)C(=O)c1c(C(C)C)nn2ccccc12,Potency,[1],"inconclusive: 7.5 µM [falling, single point]"
same,Potency,[6],inconclusive: 0.0007 µM
same,Potency,[11],inactive
same,Potency,[9],inactive
same,Potency,[10],active: 23.9 µM
C[C@@H](O)[C@H]1C(=O)N2C(C(=O)O)=C(S[C@@H]3CN[C@H](C(=O)N(C)C)C3)[C@H](C)[C@H]12,Potency,[2],inactive
same,"activity change, negative = inhibition",[7],inconclusive: -10.8%
same,Potency,[8],"inconclusive: 2.68 µM [cytotoxic, single point]"
same,activation,[9],inconclusive: -7.39%
same,Potency,[10],inactive
OC1(c2ccc(Cl)cc2)CCNCC1,Potency,[2],inactive
same,Potency,[7],inactive
same,Potency,[9],inactive
same,Potency,[10],inactive
CC(C(=O)O)c1ccc2c(c1)[nH]c1ccc(Cl)cc12 (stereo not given),Potency,[1],"inconclusive: 5.96 µM [rising, full curve, poor fit]"
same,Potency,[12],"inconclusive: 15 µM [rising, partial curve, poor fit]"
same,"activity change, negative = inhibition",[3],inconclusive: 14.9%
same,Potency,[5],inactive
same,Potency,[6],"inconclusive: 9.44 µM [fluorescent, full curve, poor fit]"
same,Potency,[11],inactive
same,Potency,[8],inactive
same,Potency,[9],"inconclusive: 0.0674 µM [rising, full curve, poor fit]"
same,Potency,[10],"inconclusive: 4.25 µM [fluorescent, full curve, poor fit]"
same,Potency,[13],inactive
COc1ccc(N)c([N+](=O)[O-])c1,Potency,[1],inactive
same,Potency,[4],"inconclusive: 0.155 µM [rising, full curve, poor fit]"
same,Potency,[5],inactive
same,Potency,[7],inactive
same,activation,[9],inconclusive: 8.44%
same,Potency,[10],inactive
Nc1c2c(nc3ccccc13)CCCC2O (stereo not given),Potency,[12],inactive
same,Potency,[9],inactive
same,Potency,[10],inactive
same,Potency,[13],inactive
O=C(O)CC(C(=O)O)S(=O)(=O)O (stereo not given),Potency,[2],"inconclusive: 54.9 µM [cytotoxic, single point]"
same,Potency,[12],"inconclusive: 61.6 µM [rising, partial curve]"
same,"activity change, negative = inhibition",[7],inconclusive: 2.18%
same,Potency,[11],"inconclusive: 54.9 µM [cytotoxic, single point]"
same,Potency,[9],inactive
same,Potency,[10],inactive
CCCCCCC1CCCC(=O)O1 (stereo not given),Potency,[1],"inconclusive: 54.9 µM [rising, partial curve]"
same,Potency,[12],inactive
same,Potency,[4],inactive
same,Potency,[6],"inconclusive: 43.6 µM [rising, partial curve]"
same,Potency,[7],inactive
same,Potency,[9],"inconclusive: 0.616 µM [rising, full curve, poor fit]"
same,Potency,[10],"inconclusive: 2.75 µM [fluorescent, full curve, poor fit]"
Cc1cc2c(cc1CC(=O)c1sccc1S(=O)(=O)Nc1onc(C)c1Cl)OCO2,Potency,[2],"inconclusive: 0.119 µM [cytotoxic, single point]"
same,"ratio activity, negative = inhibition",[12],inconclusive: 3.25%
same,activation,[6],inconclusive: -20%
same,Potency,[9],inactive
same,Potency,[10],inactive
Nc1ccc2cc(S(=O)(=O)O)cc(O)c2c1N=Nc1ccccc1C(F)(F)F,Potency,[1],inactive
same,Potency,[4],inactive
same,Potency,[6],inactive
same,Potency,[9],"inconclusive: 61.6 µM [falling, single point]"
same,Potency,[10],"inconclusive: 54.9 µM [activator, single point]"
same,Potency,[13],"inconclusive: 48.6 µM [cytotoxic, partial curve]"
COCC(C)O (stereo not given),Potency,[2],"inconclusive: 0.199 µM [cytotoxic, full curve, poor fit]"
same,Potency,[9],"inconclusive: 61.7 µM [activator, single point]"
same,Potency,[10],"inconclusive: 56.2 µM [activator, partial curve, poor fit]"
